Data: the supplement of paper PMC10126150
Values marked as one replicate rest on one cluster of the flow cell; about a third of the high ones do not repeat.

System: ATP
Assay: switch fluorescence ratio, 500 uM ATP over buffer (Cy3 cluster intensity, sum of 5 cycles each) (fold (ratio)); higher = stronger signal-on switching upon ATP binding; sequences stand for … in TCGTCGGCAGCGTCAGATGTGTATAAGAGACAGTTTTTTTTTTTTTTTTTTTTTTTTT…TC
Details: aptamer strand: ATP DNA aptamer (quencher-CACCTGGGGGAGTATTGCGGAGGAAGG + anchor), 100 nM annealed; ATP concentration: 500 uM; one replicate
Procedure, shortened: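 Switching-strand clusters labelled with Cy3 on a modified Illumina MiSeq flow-cell were annealed to 100 nM quencher-labelled ATP aptamer, imaged in selection buffer, and re-imaged after 15 min with 500 uM ATP at 22 °C. This was done over five cycles with NaOH stripping and re-annealing in between. The fluorescence ratio is summed target-cycle over summed buffer-cycle Cy3 intensity per cluster, averaged per switch-domain sequence, excluding clusters outside 100-1000 RFU.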
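Note: ATP exposure 15 min at 22 °C before imaging.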

Sequence | switch fluorescence ratio
CTTTGGTGCG | 0.951
CAAGAGATG | 1.01
AGAAAACAGG | 1
GCTAGCGGAG | 1.02
TTGTAAAGAT | 0.999
GGCGAGGGCA | 1.04
CAAAAGGTTT | 1.04
CCATCACTTG | 0.986
CCGTATCGAT | 1.04
GGGCTTGGCC | 1.02
AATTCCGGAG | 2.53
CTGCGACTTA | 0.97
CACAGGATTG | 0.952
CTTTTGACGG | 1
GCAACGAGGC | 1.06
TTACTGGGCC | 0.981
TAGACCGGGA | 1.01
CAGCATGCCG | 0.963
ATTCCTGGG | 0.998
ATGCTCAGCA | 1.04
TGGCGATCTT | 1
CGCCCTCACA | 1.17
GAGGATTTCT | 1.05
TTAATCTGTG | 1.01
AATACGTTCG | 1.02
GCATTCGTCG | 1.01

Sequence | switch fluorescence ratio
TTACTAATTC | 1.04
TGCGCATGAA | 1.02
TTAAAGTCTT | 0.996
TAAAGACCGT | 1.21
CGGGATGGT | 0.965
AGAGAGCTGG | 1.02
CATCACTAGC | 1.04
CTGGCCGAGC | 1.03
GTCTTAAAGG | 0.995
AAGGGACCAA | 1.04
TATATGTGAG | 0.992
AGCAATAAAT | 1.19
CGTAGTATCT | 0.969
TCAGGAACTC | 0.956
ATAACTGTGG | 1.01
TGATGTGGAA | 1.01
GGCCCCCAGT | 1.1
GGAAATCGAC | 1.17
TCTTTAGGTT | 1.01
ACCTTATGCA | 1.03
TGCTTCTAGA | 1.05
CGAGCCCTCG | 1.02
TACCGTAATG | 1.34
GTATTATGAC | 1.01
TTGTTGCCGG | 1.09
GAGTGGTGAA | 1.02

Sequence | switch fluorescence ratio
GAGTTTGCGG | 0.929
AGGGTCCAGA | 0.952
GCCGAAGGGC | 1
AATTCATGTC | 1.14
TTAACTGCCA | 1.06
ACCTCTTCGA | 1.04
CCCCGTGCTC | 3.64
CTTTGTGGAA | 0.974
ATATAACAGC | 1.05
CAGACGACAG | 1.07
CGGTTCAAAT | 0.985
GAAATCGCCT | 1.06
TAGGCGACAA | 0.998
CGCAGGTTTC | 1.09
AGCTAATCGC | 1
TGCACATGTT | 1
GTTGGGCTGG | 1
GAATTTAGA | 1.01
TGGGAGTG | 0.984
GGTGAGTATC | 0.986
ACGTCTGTTC | 1.02
TTAAGACGCC | 1.02
GGTCGTGGTG | 1.04
TTGCACGATA | 1.12
GGACTTAAAA | 0.963
AAACTAGGG | 0.998

Sequence | switch fluorescence ratio
GAGTGGGATA | 0.962
GCGCAAAGCT | 1.06
CGTGCGAACG | 0.992
TTAACGACTA | 1.01
AGTGCGTACA | 1.02
AACGGTAGGA | 1.02
ACGGTTCCTT | 1.11
CTACCGATAG | 1.36
TATTGGAGT | 0.997
AGCATGGAGT | 1.03
ACGTGTTGCT | 0.995
GGACGTATGT | 1.05
GTGATAACGT | 1.01
GGTAATTAAC | 0.982
AATGTCCTCC | 1.11
TTGCTTAACT | 1.01
TTTGTTTCG | 0.991
CCAAAGGGCG | 1.12
CGCCAAGGCG | 1.02
TGGTCGTGGA | 1.04
AAAAAGGACG | 0.945
TGGCGCACAC | 2.93
AAGGGGAAGA | 1.03
CTTTTAAGAG | 1.06
AATTTCGCTG | 1
ACCCGCTCCG | 1.34

Sequence | switch fluorescence ratio
TCGGAGGGCA | 0.997
CTGTTTTGTT | 0.918
TGGTCATTAA | 0.975
CCGGGGGACT | 1.23
AGAGTTCTG | 0.953
ATATCGTTAT | 1.03
TAATCTACCG | 1.09
GAGGACCCAA | 1.03
TATAACATTC | 1.04
TACACGGTTG | 0.995
AAGTCGCGAG | 1.03
CCAAACTTTT | 1.02
CCACTAAAGA | 1.07
ATCGCAACTT | 1.18
AAGGGGTTCC | 0.979
ATGCCTAT | 1.37
CCGACAAGAG | 2.55
AATCGGGCCT | 1.05
GAGGTATACG | 1.02
CTAAGCTGTG | 0.989
GCGCTATCGG | 1.02
GATTCTTTTA | 1.05
GGTTTGGACT | 1.05
ATGATATTTA | 1.02
ACATTAGTCA | 1
TCCAGTTCGG | 1.02

Sequence | switch fluorescence ratio
CGGTGTCGA | 1
AGATGGACAA | 0.977
TACTCTGTTT | 1.06
TTTGCCTCGC | 0.972
AGATAAGCTC | 0.995
TGCCCTAGTA | 1.02
GATGGGAACT | 1.01
CGAGTCTGCG | 0.974
TATATGGTTT | 1.05
CAACCTAATG | 0.993
GGCACCTGG | 0.962
CGTATAGGGT | 0.978
GCAGATCGCT | 1.01
AAGCCCGATG | 1.03
CTGGATGCTA | 1.18
CCACGTAGTT | 1.02
ATGTTAATAT | 0.986
TTGATCCTGT | 1.01
CGCCTGAAGA | 1.03
CTAGACATTT | 1.01
TGAATGCTAG | 1.01
AGCCTCGTTT | 0.989
CCGCTGGTTG | 1.08
GCACTTCAAC | 1.09
CGTGGGGCCG | 0.974
GCCTCCCAAA | 2.78

Sequence | switch fluorescence ratio
GTAATCCCTG | 1.02
ACTTGCTCGG | 1.12
GTTGGCTGTT | 1
CATATATGCT | 1.01
ACGCCGTTGT | 1.3
CTCATTTTAT | 0.997
CCTCAACTTT | 1.33
CGGTTCTACT | 1.03
AGGTATCATG | 0.95
CTCCAATCCC | 1.09
CGTGGGTAGC | 1.03
CGCTTGTATG | 0.98
CTATGTAATG | 1.05
CGAATGAGA | 1.01
GCTATTGGAC | 1.01
CGGAAACAAG | 1.01
TAGTGGTATT | 1
AAACGTTGCC | 1.04
GGATATCCGG | 0.979
CGGGAGGCGA | 0.947
TGTTAGTGAA | 1.03
GCATGTAACG | 1.02
ATTTGCCTG | 1.07
AACGGGGGAC | 1.09
CAATCACTT | 0.967
CTTGTCGGGA | 1.02

Sequence | switch fluorescence ratio
TACGGCTACT | 1.26
CGCCGTGGGA | 1.02
CGACGGAGTC | 1.06
CGGTGCACTA | 1.01
GCTCCGGGCT | 1
CTCTCGGTAT | 1.08
TGAAGACAGT | 0.976
AAAACGGGCG | 1.06
CTGGCAGCCT | 0.973
CGACGGAGGT | 1.01
GAGAGAAACA | 0.949
AGTTCCTTCT | 1.06
GGACTACAA | 1.02
TTTCGATGT | 0.972
ATTAATTAC | 1.03
GAACTATCA | 1.03
TATGTTCGGC | 1.03
AGTTGGGTAA | 1.01
AATATAGCCT | 1.15
